Test results from the supplement of paper PMC3724861.
This is one part of the list.

What follows are sequences tested on T1, Caupolican (Caup) homeodomain DNA-binding domain (assay: PBM E-score (8-mer, recovered from the published 9-mer minima) (E-score (dimensionless, -0.5 to 0.5)); Drosophila protein; higher = stronger relative binding preference, active = 0.31 or more).
T1 sequence: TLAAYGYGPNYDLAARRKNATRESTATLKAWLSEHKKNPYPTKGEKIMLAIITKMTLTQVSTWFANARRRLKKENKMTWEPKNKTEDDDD
In short: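 Caup's homeodomain DNA-binding domain (residues 214-303) was produced by in vitro transcription and translation and applied at 100 nM to custom-designed protein binding microarrays. Each value is an enrichment score giving relative binding preference for a short DNA word; higher means stronger. Published 9-mer scores were the minimum of their two constituent 8-mer scores, and the 8-mer values were recovered from those minima. A cutoff of 0.31 marks candidate binding sequences.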

PBM E-score, active:
ATGTTACC 0.331
CATGAACA 0.32

PBM E-score, ≥ 0.0929:
ACTGGATA

PBM E-score, inactive:
CCTCAAGC -0.28
GGCAGGCA -0.166
GTGGACTA 0.0435
CAATAGTC 0.146
AAAACGTT 0.0744
AAGGTATT 0.0964
CCCATGAC -0.078
CCGCACGA -0.0767
ATAGCACG 0.0747
CTAATGAG -0.0984
AGTGCGCG -0.172
TTCGTAAA 0.0388
AGGGAGCA -0.154
AGCATTGA 0.0229
ACACAACT 0.243
AGCTCATA 0.00166
GCCTAGCC -0.245
AAGAGGCG -0.0927
AAGCACTT 0.0786
AGAGCCAC -0.0889
CTGTAGGA -0.0496
GCCCGTGA -0.187
CCTAGATA 0.00054
CGGTAACA 0.243
AATAGTCG 0.0512
GCGAGCCC -0.217
AATTCTCC -0.0184
CACGACAG 0.132
GCCTATTA 0.0818
CCCTGGAC -0.0977
CACATATA 0.251
CATTGATA 0.0779
TGAAGTCA -0.00071
ACAGACGT 0.154
GCCACCCC -0.221
AATGGTTG 0.0268
AATATTGG 0.0704
CGGATGCC -0.0989
AAAACGAA 0.0391
AGCCCGTC -0.219
GAACGGAA -0.0137
CAAATGAG -0.00325
ACCGGAAT -0.0553
GATAGAGA -0.0737
CGTTAGAC -0.112
ATTCGCAC -0.00832
CAAACTCG -0.0882
AGGCCGCG -0.201
AGTATGAG 0.0814
ATCGAAAG 0.0469
GGTGCACA -0.0712
AAACATTT 0.252
AAGACAGA 0.12
AGGTGCGG -0.136
TATATAGA 0.158
CTTAAGGA 0.00395
ACGTGGCG -0.111
ATGCTCTC 0.0532
GTTCGAAC 0.159
ACCTCGCT -0.0751
AGTCGAAG -0.0241
ATACCCGC 0.0153
CTACGGGA -0.0503
CAACAGGA 0.0881
AATAACAG 0.241
AGGAACCC -0.0815
ACCGCACT -0.125
CCTATTTA -0.0799
GCAAGTTA 0.0766
GCTGCGAC -0.133
CCCGTTGC -0.134
CGCTCTTA -0.0212
CTGACCCA -0.11
GCGGCACC -0.22
GCAGACGA -0.00472
CCGTTAGA -0.00338
CAACGTAG 0.0374
ATACGACG 0.13
TGTGCACA 0.132
ATATTCCG 0.0125
AAGTTAGC 0.0975
CATAGTGC 0.117
GGTTTGAA 0.0279
CGCGGAGC -0.249
GGGCTATA -0.123
CGCAAGGA -0.102
GTCCGAAA 0.0444
ACACCCGT 0.109
AGTGTGTC 0.204
CCAGTCAG -0.104
GCATGATA 0.159
ATTAGAGA 0.0176
CGAACAAG 0.295
AAGGTGGT 0.0307
ACGACAAT 0.186
ACCACTAA 0.15
AAGAGAAC 0.0784
ATATGGGA -0.00099
CCTAGCCA -0.125
AAATTGAA 0.116
GCACATTA 0.107
AACTCGCA 0.0477
AGGAGGGG -0.228
CTCACGAA 0.0184
AGCGGGTC -0.215
GACAGAAA 0.104
GACAGCAC 0.0877
CCATGGAG -0.0703
CAAAGAAG -0.0488
CGAGAGTC -0.123
AGTTGTAC 0.308
AAGAACAG 0.172
CGCAGCAG -0.199
GTGCCGAA -0.0996
ATCTGTCC 0.114
CGGCTTAC -0.0622
AAGGAAAT 0.0386
ACTCCTCT -0.00759
ACTGATAA 0.119
CTGGGCAC -0.168
CATACTAA 0.167
CTATTCTC 0.0382
TAGAGATA 0.0621
CCGACGTC -0.202
ATGTAGGG 0.129
AACCCCGT -0.12
ACACTTAA 0.197
CTTGCTAC 0.151
AGTTAATG 0.187
ACGTGGTC 0.0208
TCTGCTAA 0.0179
CCCACGCA -0.21
ATTAATCC 0.13
ACGTGGTA 0.132
CAAAAAAG 0.046
AAAGTATG 0.124

PBM E-score, ≥ 0.19:
GTGATCAA

PBM E-score, ≥ 0.0132:
CGTGACCA

PBM E-score, ≥ -0.0476:
AGGCAGGA
